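Compound exposure: 48 hours, 5 concentrations, 96-well plates. GI50 = concentration required for 50% inhibition of growth.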 The source made the active and inactive calls. Rule as the data show it: active = GI50 up to about 1.1 µM and inactive = higher.
Key:
Test in all cases: inhibition of tumour cell growth, NCI panel, 48 h
[1] = test system: M14
[2] = test system: MOLT-4
[3] = test system: UACC-257
[4] = test system: HOP-92
[5] = test system: OVCAR-3
[6] = test system: CAKI-1
[7] = test system: HCT-116
[8] = test system: NCI-H226
[9] = test system: A549
[10] = test system: PC-3
[11] = test system: RXF 393
[12] = test system: T47D
[13] = test system: BT-549
[14] = test system: Hs-578T
[15] = test system: UACC-62
[16] = test system: OVCAR-8
[17] = test system: HCT-15
[18] = test system: HCC 2998
[19] = test system: NCI-H460
[20] = test system: U-251
[21] = test system: MDA-N
[22] = test system: K562
[23] = test system: NCI-H522
[24] = test system: NCI-H23
[25] = test system: 786-0
[26] = test system: DU-145
[27] = test system: SK-OV-3
[28] = test system: A498
[29] = test system: HOP-62
[30] = test system: COLO 205
[31] = test system: SF-295
[32] = test system: SNB-19
[33] = test system: UO-31
[34] = test system: NCI/ADR-RES
[35] = test system: KM12
[36] = test system: RPMI-8226
[37] = test system: MDA-MB-435
[38] = test system: SK-MEL-2
[39] = test system: EKVX
[40] = test system: SNB-75
[41] = test system: SK-MEL-28
[42] = test system: MDA-MB-231
[43] = test system: LOX IMVI
[44] = test system: TK-10
[45] = test system: SW-620
[46] = test system: SN12C
[47] = test system: OVCAR-5
[48] = test system: SF-268
[49] = test system: OVCAR-4
[50] = test system: ACHN
[51] = test system: MCF7

**Q.** How did the GI50 [1] turn out when `O=C1Cc2c([nH]c3ccc(Br)cc23)-c2cccc(O)c2N1` was run?
**A.** Its GI50 is inactive: 78 µM.

**Q.** And the GI50 [2]?
**A.** The GI50 was inactive: 12.6 µM.

**Q.** And the GI50 [3]?
**A.** Its GI50 is inactive: 27.2 µM.

**Q.** And the GI50 [4]?
**A.** The GI50 was inactive: > 100 µM.

**Q.** And the GI50 [5]?
**A.** The GI50 was inactive: 21.9 µM.

**Q.** What about the GI50 [6] of the same molecule?
**A.** The GI50 was inactive: > 100 µM.

**Q.** And the GI50 [7]?
**A.** The GI50 was inactive: 50.6 µM.

**Q.** And the GI50 [8]?
**A.** The GI50 was inactive: 72.6 µM.

**Q.** What about the GI50 [9] of the same molecule?
**A.** Its GI50 is inactive: 69.7 µM.

**Q.** What about the GI50 [10] of the same molecule?
**A.** Its GI50 is inactive: 48.8 µM.

**Q.** What about the GI50 [11] of the same molecule?
**A.** Its GI50 is inactive: 27.4 µM.

**Q.** And the GI50 [12]?
**A.** The GI50 was inactive: 6.11 µM.

**Q.** What about the GI50 [13] of the same molecule?
**A.** The GI50 was inactive: 16 µM.

**Q.** What about the GI50 [14] of the same molecule?
**A.** The GI50 was inactive: 21.2 µM.

**Q.** What about the GI50 [15] of the same molecule?
**A.** Its GI50 is inactive: 50 µM.

**Q.** What about the GI50 [16] of the same molecule?
**A.** Its GI50 is inactive: 18.2 µM.

**Q.** And the GI50 [17]?
**A.** Its GI50 is 11.9 µM.

**Q.** What about the GI50 [18] of the same molecule?
**A.** The GI50 was inactive: 27 µM.

**Q.** And the GI50 [19]?
**A.** The GI50 was inactive: 20.4 µM.

**Q.** What about the GI50 [20] of the same molecule?
**A.** The GI50 was inactive: 45.3 µM.

**Q.** What about the GI50 [21] of the same molecule?
**A.** Its GI50 is inactive: > 100 µM.

**Q.** And the GI50 [22]?
**A.** The GI50 was inactive: 14.7 µM.

**Q.** What about the GI50 [23] of the same molecule?
**A.** Its GI50 is inactive: 14.4 µM.

**Q.** And the GI50 [24]?
**A.** Its GI50 is inactive: 16.8 µM.

**Q.** What about the GI50 [25] of the same molecule?
**A.** The GI50 was inactive: > 100 µM.

**Q.** And the GI50 [26]?
**A.** The GI50 was inactive: 27.4 µM.

**Q.** And the GI50 [27]?
**A.** The GI50 was inactive: 49 µM.

**Q.** And the GI50 [28]?
**A.** Its GI50 is inactive: > 100 µM.

**Q.** What about the GI50 [29] of the same molecule?
**A.** The GI50 was inactive: 23.6 µM.

**Q.** And the GI50 [30]?
**A.** The GI50 was inactive: > 100 µM.

**Q.** And the GI50 [31]?
**A.** The GI50 was inactive: 55.7 µM.

**Q.** What about the GI50 [32] of the same molecule?
**A.** The GI50 was inactive: 83.9 µM.

**Q.** What about the GI50 [33] of the same molecule?
**A.** The GI50 was inactive: 48.4 µM.

**Q.** And the GI50 [34]?
**A.** The GI50 was inactive: 18.8 µM.

**Q.** And the GI50 [35]?
**A.** Its GI50 is inactive: 29.5 µM.

**Q.** What about the GI50 [36] of the same molecule?
**A.** The GI50 was inactive: 4.28 µM.

**Q.** What about the GI50 [37] of the same molecule?
**A.** Its GI50 is inactive: 49.8 µM.

**Q.** What about the GI50 [38] of the same molecule?
**A.** The GI50 was inactive: 70 µM.

**Q.** What about the GI50 [39] of the same molecule?
**A.** Its GI50 is inactive: 86.5 µM.

**Q.** What about the GI50 [40] of the same molecule?
**A.** The GI50 was inactive: 26.8 µM.

**Q.** What about the GI50 [41] of the same molecule?
**A.** Its GI50 is inactive: > 100 µM.

**Q.** And the GI50 [42]?
**A.** The GI50 was inactive: > 100 µM.

**Q.** And the GI50 [43]?
**A.** The GI50 was inactive: 21.5 µM.

**Q.** And the GI50 [44]?
**A.** Its GI50 is inactive: 29.3 µM.

**Q.** What about the GI50 [45] of the same molecule?
**A.** The GI50 was inactive: 97.5 µM.

**Q.** What about the GI50 [46] of the same molecule?
**A.** Its GI50 is inactive: > 100 µM.

**Q.** What about the GI50 [47] of the same molecule?
**A.** Its GI50 is inactive: > 100 µM.

**Q.** What about the GI50 [48] of the same molecule?
**A.** Its GI50 is inactive: 30.1 µM.

**Q.** What about the GI50 [49] of the same molecule?
**A.** The GI50 was inactive: 67.9 µM.

**Q.** What about the GI50 [50] of the same molecule?
**A.** The GI50 was inactive: 60.4 µM.

**Q.** What about the GI50 [51] of the same molecule?
**A.** The GI50 was inactive: 20.2 µM.
